# Experimental data published in paper PMC4336329 (PLoS ONE, 2015).
# In all, about 310,000 compounds went through this assay and about 14,000 (4.5%) showed an effect of 50% or more. Effects have a minus sign here. The list shows a part of the results.
# Target: human ether-à-go-go-related gene (hERG) potassium channel (human, UniProt Q12809)
# Assay: primary screen, population patch clamp on CHO cells stably expressing hERG
# 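Further: peak tail current of the secondary pulse compared with the same well before compound.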
# Chain of human ether-à-go-go-related gene (hERG) potassium channel (Q12809 whole entry, looked up): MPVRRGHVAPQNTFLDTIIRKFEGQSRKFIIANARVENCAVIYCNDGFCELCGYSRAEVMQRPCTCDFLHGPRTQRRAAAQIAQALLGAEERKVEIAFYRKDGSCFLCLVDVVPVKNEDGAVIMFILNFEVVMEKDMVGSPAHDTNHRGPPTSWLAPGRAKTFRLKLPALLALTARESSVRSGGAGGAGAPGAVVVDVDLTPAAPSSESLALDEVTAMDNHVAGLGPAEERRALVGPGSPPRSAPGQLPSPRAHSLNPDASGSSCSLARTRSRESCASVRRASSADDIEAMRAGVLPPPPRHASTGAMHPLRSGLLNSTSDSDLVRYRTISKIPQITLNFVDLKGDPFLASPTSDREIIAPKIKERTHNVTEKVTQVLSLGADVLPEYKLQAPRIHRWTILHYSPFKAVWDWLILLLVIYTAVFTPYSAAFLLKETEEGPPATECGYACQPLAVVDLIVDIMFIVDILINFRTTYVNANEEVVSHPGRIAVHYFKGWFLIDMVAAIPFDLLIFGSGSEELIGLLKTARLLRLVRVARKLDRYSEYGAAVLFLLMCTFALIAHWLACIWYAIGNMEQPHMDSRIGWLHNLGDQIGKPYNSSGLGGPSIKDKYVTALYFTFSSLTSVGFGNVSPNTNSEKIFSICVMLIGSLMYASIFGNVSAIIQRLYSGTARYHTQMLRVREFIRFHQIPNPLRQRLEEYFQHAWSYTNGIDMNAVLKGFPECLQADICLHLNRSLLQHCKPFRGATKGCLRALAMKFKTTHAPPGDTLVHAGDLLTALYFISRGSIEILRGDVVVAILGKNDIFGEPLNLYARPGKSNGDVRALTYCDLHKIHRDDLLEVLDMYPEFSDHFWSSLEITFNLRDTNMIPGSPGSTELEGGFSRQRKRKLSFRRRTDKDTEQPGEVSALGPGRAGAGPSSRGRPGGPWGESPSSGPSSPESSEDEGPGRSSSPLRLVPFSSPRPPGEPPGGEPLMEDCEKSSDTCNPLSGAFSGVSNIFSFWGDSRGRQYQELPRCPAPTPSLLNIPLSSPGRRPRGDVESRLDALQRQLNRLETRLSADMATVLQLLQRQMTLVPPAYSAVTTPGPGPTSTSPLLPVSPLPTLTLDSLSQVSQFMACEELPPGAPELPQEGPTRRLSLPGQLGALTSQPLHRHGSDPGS
row,Structure (SMILES),"hERG current change (%, negative = inhibition) at 10uM [%]"
1,CSC(=NNC(=O)c1ccccc1O)SC,-38.6
2,CCOC(=O)c1c(CC(C)C)csc1NC(=O)CCl,1.29
3,COc1ccc(F)c(CN2CCC(n3nccc3NC(=O)CCCc3ccccc3)CC2)c1,-86.7
4,c1ccc(-n2c(Sc3cnccn3)nnc2-c2cccs2)cc1,-33.3
5,CCc1[nH]nc2c1C(c1ccsc1)C(C#N)=C(N)O2 (centres unmarked),-13.1
6,O=C(NCc1ccc2c(c1)OCO2)C1CCN(S(=O)(=O)c2cccc3nsnc23)CC1,29.7
7,COc1ccc([N+](=O)[O-])cc1NC(=O)C(C)Sc1nc(C)c(C)c(C)n1 (centres unmarked),-44.4
8,COc1cccc(C2=NOC(C(=O)Nc3c(C)n(C)n(-c4ccccc4)c3=O)C2)c1 (centres unmarked),5.34
9,O=C(Cn1cc(C(F)(F)F)cc(Cl)c1=O)NCCc1ccc(Cl)cc1Cl,-11.3
10,OCC[C@@H]1C[C@@H](O)[C@H](O)[C@]2(CCCO2)O1,-9.55
11,COc1ccc(S(=O)(=O)N(C)CC(=O)NCc2cccnc2)cc1,-31.8
12,CC(C)Oc1ccc(C(=O)NCC(=O)N2CCN(S(=O)(=O)/C=C/c3ccccc3)CC2)cc1,-67.6
13,CC(C)CNS(=O)(=O)c1ccc(CCC(=O)NCCC2=CCCCC2)cc1,11.7
14,CCOC(=O)C1=C(COC(=O)/C=C/c2cc(Br)ccc2F)NC(=O)NC1C (centres unmarked),10.6
15,O=C(CN1C(=O)NC2(CCCC2)C1=O)OCc1ccccc1,11.5
16,CCNC(=O)OCC12CC3CC(CC(C3)C1)C2,-5.85
17,COc1ccc2c(c1)c1ncn(CCCN3CCOCC3)c(=O)c1n2C,-21.4
18,O=C(OC1CCCCC1=O)c1cc(S(=O)(=O)N2CCOCC2)ccc1F (centres unmarked),6.49
19,CCOc1ccc(Cn2cc(F)c(=O)[nH]c2=O)cc1,15
20,CC1CCCN(c2ccc3nncn3n2)C1 (centres unmarked),18.5
21,Cc1nc(NCCN)c(C#N)c2c1COC(C)(C)C2,16
22,O=C(COc1cccc(NC(=O)c2ccccc2)c1)c1ccccc1,6.9
23,Cc1ccc(-n2c(C)cc(C)c(C#N)c2=O)cc1,27.3
24,O=S(=O)(Nc1ccccc1C(F)(F)F)c1ccc(-c2ccccn2)s1,4.58
25,COc1ccc(-n2c3c(c(=O)[nH]c2=O)C(NC(C)=O)(C(F)(F)F)C(=O)N3)cc1 (centres unmarked),10.1
26,CC(=O)Nc1ccc(S(=O)(=O)NC2CC(=O)N(c3ccc(C)cc3)C2)cc1 (centres unmarked),2.22
